# Whole data set: some 4,500 sequences, median “median log2 fold change of GCK-ALFA target abundance (FLAG IP / Myc IP barcode read proportion)” near 0.078, cut for the lowest 2% near -0.6. The list shows a part of the results.
# B1: GBRAP_80_6839 (protein)
# chain: DRARLEAALARLAELLPELAPELRATVDRLLAAGVPVAVLADYVEAIVELAELDPEKARELLREAIEEVNELLAEGDLEGAIAVVRGYAGDALVEVEELE
# B2: GBRAP_52_6124 (protein)
# chain: MEEEARKLVEEIIKLVKEGKEEEARKLAREIVETKDDEFLELVADELAELIKKASEEEQEYLEKAAEILAEAIEEAGRDEALADYVLSRAAAAAYEKELE
# B3: GBRAP_166_4966 (protein)
# chain: MEEEIKEEFKKYLEELKEKMKKANEEEKLELLAEAAEKLREAKEAGVSRETLRELIRYLIELAKEVGLTDSQVYGALSILADLDEEEIDILEEEIAEVRA
# B4: GBRAP_160_4262 (protein)
# chain: SPELDALIADLRADRDEILALVDEISAEEVRTLAVTELGSHLLEAIELGIVTDEQEEQLAAIIDALEAELKANENASAETLKAIITEHFDAAIALLEKAK
# B5: GBRAP_53_6404 (protein)
# chain: SMEEIERLKEEIRKLTEKATKADDETRAKLVAEIGKLLKKLKEAGMPEEEIEKLAREVAEKLKAAGAPDSHLVALAKALEELGLEEATAEVGELLVEDLE
# B6: GBRAP_95_7057 (protein)
# chain: EDDRLAFEDLAEVTDTAVELGDAEAAERSAAELVRLHAEHGPLPLPESISLEARKLILEVAVRTADPATVEALLAALLAAARTAEERAALRAHYAALRAA
# B7: GBRAP_52_6177 (protein)
# chain: MRERMRRLVEEIVALAKAGDREGAEALIRELARTLDEEELREFAREFAELVLAAPVEELDLLAEVLDLIEDIFEEEGVDPRIIAYLRGEFARAAYERELA
# B8: GBRAP_11_2720 (protein)
# chain: KSEELKKLAEEAEKLAKEVEKLIKEGPKKEEIKKLQKKVEELLKKAKEIGADEDVLKTLEIAAENLKKAIEKPENVKQYLKNAQAALRVASGQLLLEAEE
# B9: GBRAP_139_3709 (protein)
# chain: SELEEKIKEARELTRKTKENPEESIKKIVELLLSVSEEDLEKVVKAIAEELSKLPLDEAEKLADLLLEEVEKESEDEDKINIVEAVLNGALARKAYEEEL
# B10: GBRAP_125_3066 (protein)
# chain: ADAAALADLATLAKALGFSDEDVAELVELAAASSFRQTLYAIFLAEGYEEVADLVEKITEEQAKAVLAEVTAELKKNPNLSKDEVVALTKAALEKAIAAA
# B11: GBRAP_52_6196 (protein)
# chain: MRERLRRLAEEIVELVRAGREEEARAMMREAAKTLSEEELELLGEEFAELARRARPEDFDAVFRAAEMFADVLEEEGHDEVLADDLLARVAAALYERELA
# B12: GBRAP_139_3689 (protein)
# chain: SALEEKIARARELTERAVAEGEPAIRELAAFLNSLSPEEREVAVEAIGERLLPLPYDKAEALFERLREVAREELGDEDLAEMIEIEENRTLARIAVREEA
# B13: GBRAP_166_4928 (protein)
# chain: MAEERVEEARERLREVIEEGKADPSLTDAQITVDLAYELAEILEEEDDEEVKLEIVREGLELAKEAGLDPRRLATLTASLAGFDDETREKIDEIVEEILK
# B14: GBRAP_160_4633 (protein)
# chain: MESLEDMLEIIDEYTEIALEYIEEGDLDGALNALRMMVGDLVMEASEDPRFSDEDVDKLAELGDEGVAEFEAARDESPEELKRLVLEHAERLKKLVKEFY
# B15: GBRAP_35_5595 (protein)
# chain: ELDELAVESLIDRIEALIEGVPELPVETISALANSLIRDARDLLERLKNNLEALKRLAEALKKLAEALEKYHSDDPLAQETLAKVNEALKELEEQAKKVE
# B16: GBRAP_52_6371 (protein)
# chain: MEEEARRLVEEILALMEAGDEEGAEALAERIVEEKSEELVALVLRELARLVRERPGRDPEALLQAAAILADELLESDVSSKEAWDALNELLAAGLALEQA
# B17: GBRAP_18_5399 (protein)
# chain: APSPFEQAWAALSEEDQDFVAEAIGDALSSEDTEERIDILVDALVELAARVSPEELYAAAYLLLHSVVSTMEEAQAVADRFIARVPERAPEARRVLEDLA
# B18: GBRAP_35_5577 (protein)
# chain: EDEEMLLETVEDLAEATIEAIKEGNLDLAIALLKAFLRTAKIAIEDLKNNKEALEKIAELLEKVIEEIKKYLSDNPEVQELKKELEELLKEAKEKLKKVK
# B19: GBRAP_52_6155 (protein)
# chain: MEERAKKYAEELIEAVKAGDEEKIEKLLKKIAEELSEEEIELMMRIIAEKVKELTPEEQERVVEAAIKLEDILIEAGHDENLASYLEAEVAGAAYKALQA
# Molecular target: GABARAP, O95166
# Sequence (O95166 whole entry, the tested form may be a part): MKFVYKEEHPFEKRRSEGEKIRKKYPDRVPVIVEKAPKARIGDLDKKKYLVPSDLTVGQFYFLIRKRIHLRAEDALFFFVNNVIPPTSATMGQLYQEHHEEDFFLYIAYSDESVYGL
# Assay: median log2 fold change of GCK-ALFA target abundance (FLAG IP / Myc IP barcode read proportion) (log2 ratio); each designed protein is fused to an ALFA-tag nanobody in HEK293 cells to bring the named protein to FLAG-tagged glucokinase (GCK); Myc marks an untargeted standard; higher = target protein stabilised (more abundant)
# Details: target protein: 3xFLAG-MCP-GCK-ALFA reporter; HEK293 landing pad (RPLP)
# Method in brief: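 HEK293 landing-pad cells received a recombined binder library fused to the ALFA nanobody and were induced with 2 μg mL^−1 doxycycline, then transfected with a plasmid encoding a FLAG-tagged target and a Myc-tagged standard. Lysates were collected after 48 h for anti-FLAG and anti-Myc immunoprecipitation, and the circular RNA barcodes were reverse transcribed, amplified and sequenced. Target abundance for each binder is the median log2 ratio of FLAG to Myc barcode read proportions. Barcodes had to reach a proportion of at least 10^−7 in both replicates, each binder needed at least 3 barcodes per replicate, a pseudocount of 10^−6 was applied, and the two replicates were pooled.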
row,Binder,median log2 fold change
1,B1,0.152
2,B2,0.0535
3,B3,-0.12
4,B4,0.175
5,B5,0.267
6,B6,0.256
7,B7,0.0957
8,B8,-0.0462
9,B9,0.392
10,B10,-0.0841
11,B11,-0.049
12,B12,0.223
13,B13,0.0543
14,B14,-0.356
15,B15,0.34
16,B16,-0.586
17,B17,-0.0426
18,B18,0.248
19,B19,0.302
